According to PubChem BioAssay AID686978 (National Center for Advancing Translational Sciences (NCATS), 2013):
Several values for one entry are separate records, joined by “and”; a condition that tells them apart may be missing. Identical values can stand only once. Screen size: about 420,000 compounds; about 64,000 (15%) were called active. This list was built around the results that the source calls inconclusive (neither active nor inactive); the mix of calls is not that of the screen. The call rests on the fitted dose curve; in most records, active means well fitted inhibition curve with a large enough effect; inconclusive means small, poorly fitted or top-dose-only effect; inactive means flat fitted curve, though single readings scatter. Potencies of inconclusive entries are doubtful fits and often do not repeat.

Test: qHTS for Inhibitors of human tyrosyl-DNA phosphodiesterase 1 (TDP1): qHTS in cells in absence of CPT; further: nearly all actives have a fitted effect of over 55% in size
Conditions: DT40 Tdp1-/- hTDP1 cells, no CPT, ATP luminescence, 48 h; activity change, negative = growth inhibition: at 46.2 µM (top of the series) unless noted
Procedure, shortened: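 Readout: luminescence from CellTiter-Glo after 30 min in the dark at RT. Cells: DT40 Tdp1-/- with stable hTDP1, 400/well. Exposure: compounds alone, ≥48 hr, 37 °C.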
On the % scale 0 is the no-effect control and ±100 the full control effect; potency means the concentration at half of the fitted maximal effect; tags describe the fitted curve by direction and shape.

SMILES | Potency | activity change, negative = growth inhibition
COc1ccccc1CN1CCCC2(CCN(S(=O)(=O)c3ccccc3)CC2)C1 | inactive | 
CCOc1ccc(-c2cn(-c3cccc(SC)c3)c(=O)[nH]2)cc1 | inconclusive: 29.1 µM [inhibitor, single point] | 
COc1ccccc1NC(=O)Nc1ccc(F)c(F)c1 | inconclusive: 29.1 µM [inhibitor, single point] | 
CC(C)N(C(=O)CS(=O)(=O)c1ccc(Cl)c(Cl)c1)C(C)C | inconclusive: 29.1 µM [inhibitor, single point] | 
O=C(Cc1ccccc1)c1nnc(-c2ccccc2)o1 | inactive | 
COc1ccc(S(=O)(=O)Nc2cccc(N(C)S(C)(=O)=O)c2)cc1C | active: 20.6 µM | 
CCOC(=O)C1CCCN(C2=NC(=O)/C(=C/c3ccc(N(C)C)cc3)S2)C1 (stereo not drawn) | inconclusive: 25.9 µM [inhibitor, single point] | 
CCOC(=O)c1c(C)[nH]c(C(=O)OCC(=O)N(C)CC(=O)Nc2ccccc2Cl)c1C | inconclusive: 18.4 µM [inhibitor, single point] | 
Clc1ccc(-c2nnc(-c3cccc4ccccc34)o2)cc1Cl | inconclusive: 16.4 µM [inhibitor, single point] | 
Cn1nc(C(=O)Nc2cccc(C(F)(F)F)c2)c2c1-c1ccccc1S(=O)(=O)C2 | inactive | 
Cc1c(Cl)cccc1NC(=O)c1cc(-c2ccccc2O)n[nH]1 | inconclusive: 20.6 µM [inhibitor, single point] | 
C/C(=N/NS(=O)(=O)c1cc(C)ccc1C)c1c[nH]c2ccccc12 | inconclusive: 18.4 µM [inhibitor, partial curve] | 
COc1ccc(NC(=O)c2ccc(Br)o2)cc1 | inconclusive: 20.6 µM [inhibitor, single point] | 
CCc1ccc(S(=O)(=O)Nc2cccc(C3OCCCO3)c2)cc1 | inconclusive: 14.6 µM [inhibitor, partial curve] | 
CCCN(CCC)S(=O)(=O)c1ccc(C(=O)N2CCn3c4c(c5cc(C)ccc53)CCCC42)cc1 (stereo not drawn) | inconclusive: 18.4 µM [inhibitor, single point] | 
Cc1ccc(S(=O)(=O)N2C[C@H]3[C@H]4C(=O)N(c5ccccc5)C(=O)[C@H]4C[C@H](OC(=O)NCc4ccccc4)[C@@]3(O)C2)cc1 | inactive | 
Cc1cc(Cl)ccc1-c1nc(NCc2ccccc2)nc2ccsc12 | inconclusive: 20.6 µM [inhibitor, single point] | 
Cc1cccc(Oc2ccccc2NS(=O)(=O)c2ccc(CCC(=O)O)cc2)c1 | inconclusive: 16.4 µM [inhibitor, partial curve] | 
CCCCC1(Cc2ccc([N+](=O)[O-])cc2)C(=O)N(c2ccccc2)N(c2ccccc2)C1=O | inconclusive: 29.1 µM [inhibitor, single point] | 
C[C@@H](C(=O)NCc1ccc(S(C)(=O)=O)cc1)[C@@H]1C[C@@]1(C)[C@@H](NC(=O)OCc1ccccc1)c1ccccc1 | active: 14.6 µM | 
CC(CCc1ccccc1)NC(=O)C1CCCN(c2nnc(-n3cccc3)s2)C1 (stereo not drawn) | inconclusive: 23.1 µM [inhibitor, single point] | 
COc1ccc2c(c1)c(CC(=O)Nc1cc(C)c(OC)c(C)c1)c(C)n2C(=O)c1ccc(Cl)cc1 | inconclusive: 23.1 µM [inhibitor, single point] | 
COc1cc(OC)cc(C(=O)Nc2ccc(S(=O)(=O)N3CCOCC3)cc2)c1 | inactive | 

SMILES | Potency | activity change, negative = growth inhibition
O=C(CS(=O)(=O)c1ccccc1)Nc1ccc(Cl)cn1 | inactive | 
CC(=O)c1ccc(N2CCN(C(=O)/C=C/c3ccc4ccccc4n3)CC2)cc1 | active: 14.6 µM | 
CCOc1ccccc1C(=O)NC(C(=O)Nc1ccccc1N1CCOCC1)C(C)C (stereo not drawn) | inconclusive: 23.1 µM [inhibitor, single point] | 
CCOC(=O)C1(CCCc2ccccc2)CCN(C(=O)Cc2nonc2C)CC1 | inconclusive: 10.3 µM [inhibitor, partial curve] | 
COc1ccccc1Nc1ncnc2c1nc1n2CCCCC1 | inconclusive: 13 µM [inhibitor, partial curve] | 
N/C(=N\OC(=O)c1ccccc1Br)c1ccc([N+](=O)[O-])cc1 | inactive | 
O=C1CCC/C(=N/Nc2ccc(Cl)cc2)C1 | active: 7.31 µM | 
CCc1ccc(Nc2cc(C(=O)NCCCN3CCOCC3)c3ccccc3n2)cc1 | inconclusive: 25.9 µM [inhibitor, single point] | 
Cc1occc1C(=O)Nc1ccc2ccccc2c1 | inconclusive: 25.9 µM [inhibitor, single point] | 
O=C(COc1ccc(Cl)cc1)N(Cc1cccs1)C1CCS(=O)(=O)C1 (stereo not drawn) | inconclusive: 29.1 µM [inhibitor, single point] | 
Cc1cccc(NC(=O)CN(CC2CCCO2)C(=O)c2oc3ccccc3c2C)c1C (stereo not drawn) | inconclusive: 18.4 µM [inhibitor, single point] | 
Cc1cc(C)cc(C(=O)NCCCN2CCOCC2)c1 | inactive | 
Cn1ncc2c(Nc3ccc(Cl)cc3)ncnc21 | inconclusive: 25.9 µM [inhibitor, single point] | 
Cc1cc(C)cc(OC(C)C(=O)Nc2nc3c(s2)CCCC3)c1 (stereo not drawn) | inconclusive: 20.6 µM [inhibitor, single point] | 
O=C(COc1ccc2cc(Br)ccc2c1)N1CCOCC1 | inconclusive: 29.1 µM [inhibitor, single point] | 
COc1ccc(CN2C(=O)C(O)(CC(=O)c3c(C)n[nH]c3C)c3ccccc32)cc1OC (stereo not drawn) | inconclusive: 23.1 µM [inhibitor, single point] | 
Cc1ccc(OC(F)F)c(NC(=O)Nc2cccc(C(F)(F)F)c2)c1 | inconclusive: 20 µM [inhibitor, single point] | 
COc1cc2c(cc1OC)C(C)N(S(=O)(=O)c1cnc(Cl)c(Cl)c1)CC2 (stereo not drawn) | inconclusive: 29.1 µM [inhibitor, single point] | 
O=C(NC1CCN(Cc2ccccc2)CC1)c1ccc(CS(=O)c2ccc(F)cc2)o1 (stereo not drawn) | inactive | 
CCCOc1ccc(F)cc1-c1cc(C(=O)NCc2cccc(Cl)c2)[nH]n1 | inconclusive: 20.6 µM [inhibitor, single point] | 
O=C(NCc1nc2ccccc2[nH]1)C1=C[C@@H](c2csc3ccccc23)C[C@@H](OCCCCO)O1 | inconclusive: 29.1 µM [inhibitor, single point] | 
Cc1ccc(-n2nc3ccc(NC(=O)c4ccco4)cc3n2)cc1 | inconclusive: 29.1 µM [inhibitor, single point] | 
Cc1ccc(Cl)c(OCCN2CCCC(C)C2)c1 (stereo not drawn) | inconclusive: 23.1 µM [inhibitor, partial curve, poor fit] | 

SMILES | Potency | activity change, negative = growth inhibition
O=C(NCCCN1CCCC1)c1ccc(CSCc2cccc(Cl)c2)o1 | inconclusive: 35.5 µM [inhibitor, single point] | 
Cc1cc(C)c(C)c(S(=O)(=O)N2CCC(C(=O)N3CCCC3)CC2)c1C | inactive | 
CCN(CC)c1ccc2cc(S(=O)(=O)c3ccc(C)cc3)c(=O)oc2c1 | inconclusive: 29.1 µM [inhibitor, single point] | 
O=S(=O)(c1ccccc1)N1CCc2ccccc2C1 | inactive | 
Cc1ccc(S(=O)(=O)NCCOc2nc(N(C)C)nc(N(C)C)n2)cc1 | inconclusive: 23.1 µM [inhibitor, single point] | 
N#C/C(=C\c1ccc(O)c(O)c1)C(=O)NCCc1ccccc1 | inconclusive: 25.1 µM [inhibitor, single point] and inconclusive: 6.51 µM [inhibitor, single point] | 
COc1ccc(C(=O)c2ccc(N(C)C)cc2)c2ccccc12 | active: 1.46 µM | 
COc1cccc(OCCn2cc(C(C)=O)c3ccccc32)c1 | active: 18.4 µM | 
CC(C)(C)Cc1nnc(NC(=O)Cc2cccs2)s1 | inconclusive: 29.1 µM [inhibitor, single point] | 
Cc1cc(Cl)ccc1OCC(=O)NCCCN1CCOCC1 | inactive | 
COc1ccc(NC(=O)c2ccco2)cc1NC(=O)c1ccc(OC(C)C)cc1 | active: 20.6 µM | 
CCOC(=O)Cc1csc(NC(=S)NC(=O)c2ccc(F)cc2)n1 | inactive | 
COc1ccc(NC(=O)CN2C(=O)CSc3ncccc32)cc1 | inactive | 
COC(=O)NCC(c1ccco1)N1CCN(c2ccc(F)cc2)CC1 (stereo not drawn) | inconclusive: 13 µM [inhibitor, partial curve, poor fit] | 
CC(=O)c1sc2nsc(SCCN3CCCC3)c2c1N | inconclusive: 23.1 µM [inhibitor, single point] | 
CN(NC1OC(=O)c2ccccc21)c1ccc(C(F)(F)F)cc1[N+](=O)[O-] (stereo not drawn) | inactive | 
CCOC(=O)C1=C(CNCc2ccc(Cl)cc2)NC(=O)NC1c1ccccc1 (stereo not drawn) | inconclusive: 14.6 µM [inhibitor, partial curve] | 
CC1CCN(C(=O)CN2C(=O)c3cccc4cccc(c34)C2=O)CC1 |  | inconclusive: -35.4% [inhibitor]
O=C(c1ccccc1)c1ccc(C(=O)N2CCN(c3ccccc3Cl)CC2)cc1 | inconclusive: 25.9 µM [inhibitor, single point] | 
COc1cc(NC(=O)Cn2cc(S(=O)(=O)N3CCC(C)CC3)c3ccccc3c2=O)cc(OC)c1OC | inconclusive: 23.1 µM [inhibitor, single point] | 
CCCC(C(=O)Nc1cc(C)c(Cl)cc1OC)N1Cc2ccccc2C1=O (stereo not drawn) | inconclusive: 25.9 µM [inhibitor, single point] | 
COc1cccc(/C=C(\C#N)c2nc3ccccc3c(=O)[nH]2)c1OC | inconclusive: 20.6 µM [inhibitor, single point] | 
